This note sets out measurements from US20120189541A1 (AbbVie / Abbott, published 2012).

The term EC50 denotes the concentration that produces a half-maximal response. By Kd is commonly meant the constant that tells how readily two partners part at equilibrium. The term koff denotes a measure of how fast the partners let go of each other. Broadly, the kon is the second-order rate constant of association.

The target in assay [1] is T1, Cynomolgus IL-1α (cynomolgus, UniProt P79340 113-271, limits assumed).
T1 sequence (looked up): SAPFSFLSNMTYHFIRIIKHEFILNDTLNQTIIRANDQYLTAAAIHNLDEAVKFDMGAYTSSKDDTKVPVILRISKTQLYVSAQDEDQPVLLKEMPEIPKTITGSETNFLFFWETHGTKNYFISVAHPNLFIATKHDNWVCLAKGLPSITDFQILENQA
Put plainly: cell-based or functional assay.

The target of assay [2] is T2, Recombinant Human IL-1α (human, UniProt P01583 113-271).
T2 sequence (looked up): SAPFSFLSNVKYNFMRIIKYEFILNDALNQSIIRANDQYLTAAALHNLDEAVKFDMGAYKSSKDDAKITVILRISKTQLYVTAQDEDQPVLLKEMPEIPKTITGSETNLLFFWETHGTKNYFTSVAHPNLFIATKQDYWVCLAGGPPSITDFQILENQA
In words: cell-based or functional assay.

Assay [3] deals with T2, Recombinant Human IL-1α. Put plainly: capture ELISA: DVD-Ig captured by anti-human Fc, biotinylated antigen titrated; C-terminal VD. The method, then: (§1) Plates were washed five times in washing buffer (PBS containing 0.05% Tween 20) and blocked for 1 hour at 25° C. with 200 μl per well superblock blocking buffer (Thermo scientific, #37515). Blocking buffer was removed, and 2 μg/ml of each antibody or DVD-Ig molecule in PBS containing 10% superblock, 0.5% Tween-20 was added to the wells at 100 μl per well and incubated at 25° C. for 1 hour. The wells were washed five times in 1×PBST, and 1 μg/ml biotinylated antigen was titrated at 1:6 serial dilutions (for a range of μg to pg in PBS containing 10% superblock, 0.05% tween 20). Each dilution of antigen was then added to the plates and incubated for 1 hour at 25° C. The wells were washed five times in 1×PBST and incubated for 1 hour at 25° C. with polyHRP streptavidin (KPL #474-3000, Gaithersburg, Md.). The wells were washed five times in 1×PBST, and 100 μl of ULTRA-TMB ELISA (Pierce, Rockford, Ill.) were added per well. Following color development the reaction was stopped with 1N HCL and absorbance at 450 nm is measured.
On the technique in general: ELISA stands for enzyme-linked immunosorbent assay.

Assay [4] addresses T3, Cynomolgus IL-1β (cynomolgus, UniProt P79182 117-268, limits assumed).
T3 sequence (looked up): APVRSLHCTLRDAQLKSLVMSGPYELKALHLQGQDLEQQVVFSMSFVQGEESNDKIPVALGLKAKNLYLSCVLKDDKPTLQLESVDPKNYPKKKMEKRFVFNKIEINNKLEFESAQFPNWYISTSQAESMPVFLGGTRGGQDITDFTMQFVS
Put plainly: cell-based or functional assay.

Assay [5] deals with T2, Recombinant Human IL-1α. Put plainly: SPR (BIACORE), human antigen. The method, then: (§2) The BIACORE assay (Biacore, Inc, Piscataway, N.J.) determines the affinity of antibodies or DVD-Ig molecule with kinetic measurements of on-rate and off-rate constants. Binding of antibodies or DVD-Ig molecule to a target antigen (for example, a purified recombinant target antigen) is determined by surface plasmon resonance-based measurements with a Biacore® 1000 or 3000 instrument (Biacore® AB, Uppsala, Sweden) using running HBS-EP (10 mM HEPES [pH 7.4], 150 mM NaCl, 3 mM EDTA, and 0.005% surfactant P20) at 25° C. All chemicals are obtained from Biacore® AB (Uppsala, Sweden) or otherwise from a different source as described in the text. For example, approximately 5000 RU of goat anti-mouse IgG, (Fcγ), fragment specific polyclonal antibody (Pierce Biotechnology Inc, Rockford, Ill.) diluted in 10 mM sodium acetate (pH 4.5) is directly immobilized across a CM5 research grade biosensor chip using a standard amine coupling kit according to manufacturer's instructions and procedures at 25 μg/ml. Unreacted moieties on the biosensor surface are blocked with ethanolamine. Modified carboxymethyl dextran surface in flowcell 2 and 4 is used as a reaction surface. Unmodified carboxymethyl dextran without goat anti-mouse IgG in flow cell 1 and 3 is used as the reference surface. For kinetic analysis, rate equations derived from the 1:1 Langmuir binding model are fitted simultaneously to association and dissociation phases of all eight injections (using global fit analysis) with the use of Biaevaluation 4.0.1 software. Purified antibodies or DVD-Ig molecule are diluted in HEPES-buffered saline for capture across goat anti-mouse IgG specific reaction surfaces. Antibodies or DVD-Ig molecule to be captured as a ligand (25 μg/ml) are injected over reaction matrices at a flow rate of 5 μl/min. The association and dissociation rate constants, kₒₙ (M⁻¹s⁻¹) and koff (s⁻¹) are determined under a continuous flow rate of 25 μl/minute. Rate constants are derived by making kinetic binding measurements at different antigen concentrations ranging from 10-200 nM. The equilibrium dissociation constant (M) of the reaction between antibodies or DVD-Ig molecules and the target antigen is then calculated from the kinetic rate constants by the following formula: KD=koff/kₒₙ. Binding is recorded as a function of time and kinetic rate constants are calculated.
On the technique in general: In SPR one partner is held on a chip, and binding of the other changes the refractive index at the surface.

Assay [6] concerns the target T4, Recombinant Human IL-1β (human, UniProt P01584 117-269).
T4 construct: Bought recombinant protein; Biotinylated in the capture ELISA; also called hIL-1β; IL-1 beta
In words: SPR (BIACORE), human antigen. How it is done:
as §2

For assay [7], the target named is T4, Recombinant Human IL-1β. In words: cell-based or functional assay.
Assay [8] addresses T4, Recombinant Human IL-1β. In words: capture ELISA: DVD-Ig captured by anti-human Fc, biotinylated antigen titrated; N-terminal VD. How it is done: as §1
The target of assay [9] is T1, Cynomolgus IL-1α. In words: SPR (BIACORE), cynomolgus antigen.
In assay [10] the target is T3, Cynomolgus IL-1β. Put plainly: SPR (BIACORE), cynomolgus antigen.

B1: E26.35-SS-3D12r16 (bispecific antibody, human IgG1, kappa)
heavy: EVQLVESGGGVVQPGRSLRLSCSASGFIFSRYDMSWVRQAPGKGLEWVAYISHGGAGTYYPDSVKGRFTISRDNSKNTLFLQMDSLRAEDTAVYYCARGGVYKGYFDVWGQGTPVTVSSASTKGPEVQLVQSGAEVKKPGASVKVSCKASGYTFKYYGMNWVRQAPGQGLERMGWINTYTGQSTYADDFKGRVTFTLDTSTSTAYMELSSLRSEDTAVYYCARDIYYYGSDFAMDYWGQGTTVTVSSASTKGPSVFPLAPSSKSTSGGTAALGCLVKDYFPEPVTVSWNSGALTSGVHTFPAVLQSSGLYSLSSVVTVPSSSLGTQTYICNVNHKPSNTKVDKKV[letters of human IgG1 Fc with changes not shown]
light: DIQMTQSPSSLSASVGDRVTITCRASGNIHNYLTWYQQTPGKAPKLLIYNAKTLADGVPSRFSGSGSGTDYTFTISSLQPEDIATYYCQHFWSIPYTFGQGTKLQITRTVAAPDIQMTQSPSSLSASVGDRVTITCRASQDISNMLNWYQQKPGKAPKLLIYYTSRLKPGVPSRFSGSGSGTDYTFTISSLQPEDIATYFCQQGKTAPYTFGQGTKLEIKRTVAAPSVFIFPPSDEQLKSGTASVVCLLNNFYPREAKVQWKVDNALQSGNSQESVTEQDSKDSTYSLSSTLTLSKADYEKHKVYACEVTHQGLSSPVTKSFNRGEC
notes: DVD-Ig, outer domain anti-IL-1β, inner domain anti-IL-1α, short linkers
With B1, the “Cyno IL-1α Neutralization Assay EC50 (IL-1 induced hIL-8, MRC-5 cells)” value with Cynomolgus IL-1α [1] turned out to be 0.101 nM. Besides, the “Human IL-1α Neutralization Assay EC50 (IL-1 induced hIL-8, MRC-5 cells)” value in the assay with Recombinant Human IL-1α [2] stood at 0.0355 nM. Further, the values for the EC50 in the assay with Recombinant Human IL-1α [3] and with Recombinant Human IL-1β [8] were 0.0106 nM and 0.0063 nM, respectively. For the same molecule, the “Cyno IL-1β Neutralization Assay EC50 (IL-1 induced hIL-8, MRC-5 cells)” value with Cynomolgus IL-1β [4] amounted to 0.004 nM. The Kd in the assay with Recombinant Human IL-1α [5] was under 0.01 nM; with Recombinant Human IL-1β [6], 0.00352 nM; with Cynomolgus IL-1α [9], 0.0811 nM; with Cynomolgus IL-1β [10], 0.02 nM. Also, the koff is under 1e-06 s⁻¹ with Recombinant Human IL-1α [5], 4.11e-06 s⁻¹ in the assay with Recombinant Human IL-1β [6], 8.23e-06 s⁻¹ with Cynomolgus IL-1α [9] and 7.91e-06 s⁻¹ with Cynomolgus IL-1β [10]. Further, the kon was 93600 M⁻¹ s⁻¹ with Recombinant Human IL-1α [5], 1.17e+06 M⁻¹ s⁻¹ in the assay with Recombinant Human IL-1β [6], 101000 M⁻¹ s⁻¹ in the assay with Cynomolgus IL-1α [9] and 395000 M⁻¹ s⁻¹ with Cynomolgus IL-1β [10]. Also, in the assay with Recombinant Human IL-1β [7], the “Human IL-1β Neutralization Assay EC50 (IL-1 induced hIL-8, MRC-5 cells)” value came to 0.0029 nM.
